# According to publication PMC9820451, “Coprinopsis cinerea Galectin CGL1 Induces Apoptosis and Inhibits Tumor Growth in Colorectal Cancer Cells” (International Journal of Molecular Sciences, 2022):
# B1: Coprinopsis cinerea galectin CGL2 (natural protein)
# chain: MLYHLFVNNQVKLQNDFKPESVAAIRSSAFNSKGGTTVFNFLSAGENILLHISIRPGENVIVFNSRLKNGAWGPEERIPYAEKFRPPNPSITVIDHGDRFQIRFDYGTSIYYNKRIKENAAAIAYNAENSLFSSPVTVDVHGLLPPLPPA
# notes: galectin CGL2 of Coprinopsis cinerea, full-length cgl2 amplified from genomic DNA of strain Okayama 7 (#130; ATCC MYA-4618), cloned into pET22b(+); No removal of the tag is told
# Target: the molecule itself
# Experiment: dynamic light scattering; dilutions of the purified galectin filtered through 0.22 µm membranes, Zetasizer Nano-S; molecular weight estimated from the hydrodynamic radius; self-association, tetramer
protein,measurement,value
B1,stoichiometry N,4
